Data from publication PMC4336329 (PLoS ONE, 2015).
Hit rate of the full screen: of about 310,000 compounds, about 2,200 (0.71%) showed an effect of 50% or more. Effects have a minus sign here. This is one part of the list.

molecular target: human ether-à-go-go-related gene (hERG) potassium channel (human, UniProt Q12809); experiment: primary screen, population patch clamp on CHO cells stably expressing hERG
Sequence (Q12809 whole entry, looked up): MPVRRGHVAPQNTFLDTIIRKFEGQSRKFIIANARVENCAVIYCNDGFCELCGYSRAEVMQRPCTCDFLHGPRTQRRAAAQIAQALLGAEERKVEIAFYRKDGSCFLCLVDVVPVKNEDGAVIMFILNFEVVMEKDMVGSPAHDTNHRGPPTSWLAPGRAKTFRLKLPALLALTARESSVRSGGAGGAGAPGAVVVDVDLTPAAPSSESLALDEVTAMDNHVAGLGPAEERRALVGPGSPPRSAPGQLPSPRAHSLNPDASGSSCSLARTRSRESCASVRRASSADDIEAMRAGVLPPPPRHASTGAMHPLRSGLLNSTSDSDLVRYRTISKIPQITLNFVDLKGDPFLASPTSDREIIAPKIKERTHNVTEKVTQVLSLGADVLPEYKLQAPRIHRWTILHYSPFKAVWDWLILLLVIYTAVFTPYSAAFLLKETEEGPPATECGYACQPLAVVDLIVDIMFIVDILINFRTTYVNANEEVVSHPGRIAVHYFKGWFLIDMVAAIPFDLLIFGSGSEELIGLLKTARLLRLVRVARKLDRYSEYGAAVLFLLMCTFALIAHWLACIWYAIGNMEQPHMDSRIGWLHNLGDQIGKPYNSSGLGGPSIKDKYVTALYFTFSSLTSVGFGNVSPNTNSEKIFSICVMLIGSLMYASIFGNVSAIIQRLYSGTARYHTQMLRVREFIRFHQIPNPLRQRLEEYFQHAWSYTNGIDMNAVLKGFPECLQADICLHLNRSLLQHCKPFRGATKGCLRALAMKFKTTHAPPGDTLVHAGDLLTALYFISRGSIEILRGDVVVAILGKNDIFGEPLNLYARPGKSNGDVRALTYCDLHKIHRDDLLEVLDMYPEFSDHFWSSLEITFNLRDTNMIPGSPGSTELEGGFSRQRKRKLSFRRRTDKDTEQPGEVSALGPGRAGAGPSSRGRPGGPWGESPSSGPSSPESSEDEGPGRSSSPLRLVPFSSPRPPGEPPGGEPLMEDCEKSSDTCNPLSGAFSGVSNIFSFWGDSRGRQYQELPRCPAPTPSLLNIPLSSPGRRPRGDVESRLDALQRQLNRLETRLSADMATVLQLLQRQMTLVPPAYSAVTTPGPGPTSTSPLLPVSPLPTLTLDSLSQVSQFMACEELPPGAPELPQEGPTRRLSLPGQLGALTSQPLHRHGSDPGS

Structure (SMILES) | hERG current change (%, negative = inhibition) at 1uM [%]
CCCCCC1CC(CC(=O)Nc2ccc([N+](=O)[O-])cc2)C(=O)O1 (stereo not shown) | -27.8
COc1ccc(NS(=O)(=O)c2ccc(OC)c3ccccc23)cn1 | 9.44
CCCCOc1ccc(C(=O)NCc2ccccn2)cc1 | 3.91
CCC(Sc1nc(-c2cccc(OC)c2)c(C#N)c(=O)[nH]1)C(=O)Nc1nnc(C(C)C)s1 (stereo not shown) | 24
O=C(Nc1ccc2nc3ccccc3nc2c1)c1ccc(Br)cc1 | 8.85
CCn1c(CCCNC(=O)c2ccc(F)cc2)nc2ccccc21 | -7.17
COc1ccc(/C=C(\NC(=O)c2ccc(C)cc2)C(=O)Nc2ccc(C(=O)O)cc2)cc1 | 10.3
O=C(CNC(=O)c1ccc(Cl)cc1)NC(CO)c1ccccc1 (stereo not shown) | 14.4
COc1cc(C(=O)N/N=C\c2ccccc2)c([N+](=O)[O-])c(OC)c1OC | -1.14
Cc1nc2ccccc2nc1NS(=O)(=O)c1ccc(N)cc1 | 11.5
CCCc1[nH]n(-c2ccc([N+](=O)[O-])cc2)c(=O)c1C(C)=NCc1ccncc1 | -26.2
CC(NC(=O)c1ccc(NC(=O)c2ccco2)cc1)c1ccccc1 (stereo not shown) | 7.85
O=C1OC(c2ccc(O)cc2)(c2ccc(O)cc2)c2ccccc21 | -0.351
O=C(O)COc1ccc(NC(=O)C(c2ccccc2)c2ccccc2)cc1 | 11.5
C[C@@H]1C[C@H]2[C@@H]3CCC4=CC(=O)C=C[C@]4(C)[C@@]3(F)[C@@H](O)C[C@]2(C)[C@H]1C(=O)CO | -3.26
COc1ccccc1N(CC(=O)NCc1cccnc1)S(C)(=O)=O | 5.33
CCN1CCN(CCNC(=O)Nc2ccc([N+](=O)[O-])cc2)CC1 | 13.2
O=C(Nc1cc(C(=O)N2CCOCC2)ccc1N1CCCC1)c1cccs1 | -78.2
CCOC(=O)c1[nH]c2ccc(OC)cc2c1NC(=O)OC | 9.33
c1ccc(CSc2ccc(-c3cccs3)nn2)cc1 | 13.1
O=C(NCc1nnc(SCC(=O)N2CCCCCC2)o1)c1ccccc1F | 14
O=C(COC(=O)CN1C(=O)c2ccccc2C1=O)NC1CCCCC1 | 13.4

Structure (SMILES) | hERG current change (%, negative = inhibition) at 1uM [%]
CCCN(CCC)CCNC(=O)C1CCN(S(=O)(=O)c2cccc3nsnc23)CC1 | 14.8
O=C(COC(=O)c1ccc(S(=O)(=O)NCc2ccco2)cc1)NC1CCCCC1 | 4.88
COc1ccc(NS(=O)(=O)c2cccc(C(=O)NNC(=O)c3cccn3C)c2)cc1 | 6.27
Cc1ccc(-n2c(N)cc(=O)nc2SCC(=O)N2CCN(c3ccccc3)CC2)cc1 | 13.1
COc1cccc(CN2CCN(CC#Cc3ccccc3)CC2CCO)c1 (stereo not shown) | 2.55
CCOCCCNC(=O)Cn1cc2c(n1)CCCC2 | 5.36
Cc1nnsc1SCCNC(=O)Nc1ccc(Cl)cc1 | 10.1
COc1ccc(CN2CCNC(=O)C2CC(=O)NCCc2nc(C)c(C)s2)cc1C (stereo not shown) | 9.06
CC(C)(C)c1nc(SCC(=O)Nc2ccc3c(c2)OCCO3)c2ccccc2n1 | 4.06
C/C(O)=C(\C#N)c1nnc2n1CCCCC2 | 4.35
Cc1ccc(Oc2nnc(-c3ccccc3)cc2C#N)cc1 | 0.98
Cc1ccc(OCC(=O)Nc2ccc(C(N)=O)cc2)cc1 | 10.4
c1coc(CNc2c3c(nc4ncnn24)CCC3)c1 | -3.08
Cc1ccc(C)c(OCC(O)CN2CCc3ccccc3C2)c1C.Cl (stereo not shown) | -56.1
O=C(CSc1n[nH]c(=O)n1Cc1ccco1)c1ccc(F)cc1 | 9
CC1Sc2ccc(S(=O)(=O)N3CCN(c4cccc(Cl)c4)CC3)cc2NC1=O (stereo not shown) | 11.6
O=C(c1ccc(NC(=S)Nc2ccc(F)cc2F)cc1)N1CCOCC1 | 10
N#C/C(=C\c1c(N2CCC(C(N)=O)CC2)nc2ccccn2c1=O)S(=O)(=O)c1ccccc1 | 12.3
O=c1[nH]c(C2CC2)nc2sc3c(c12)CCCC3 | 13.2
O=C(N/N=C/C=C/c1cccc([N+](=O)[O-])c1)c1ccncc1 | 7.06
Cc1cc(C)n(CC(=O)NNC(=O)CCCOc2ccc(Cl)cc2C)n1 | 0.531
CC(=O)N/N=C(\C)c1cccc(C(F)(F)F)c1 | 8.59

Structure (SMILES) | hERG current change (%, negative = inhibition) at 1uM [%]
COc1ccc(OCCOC(=O)Nc2ccccc2)cc1 | 6.49
O=C(O)C[C@H]1c2cc(F)ccc2S(=O)(=O)N1Cc1ccccc1 | 4.18
O=C(CN1CCCCC1)Nc1ccc(N2CCCCCC2)cc1.O=C(O)C(=O)O | -18.1
CS(=O)(=O)N1CCC(C(=O)Nc2ccccc2F)CC1 | 15.8
NC(=O)N/N=C\c1cccs1 | 8.85
COc1ccc(-n2nc(C(=O)NCC(=O)N3CCN(Cc4ccccc4)CC3)c3ccccc3c2=O)cc1OC | 13.4
CCN(CC)c1cc(C)c2cc(NC(=O)c3cccs3)ccc2n1 | -32.3
COc1ccc(OC)c(S(=O)(=O)N2CCCC(C(=O)N3CCC(C(N)=O)CC3)C2)c1 (stereo not shown) | 4.1
CCOC(=O)c1c(C)[nH]c(C(=O)COC(=O)CCSc2ccccc2)c1C | 18.8
CCCN(CCC)C1Cc2cc(OC)c(OC)cc2C1.O=C(O)/C=C\C(=O)O | -1.61
COc1ccc(-n2cnnc2SCC(=O)NC2CCS(=O)(=O)C2)cc1 (stereo not shown) | 6.86
CC(C)(C)OC(=O)NCc1ccc(CNC(=O)c2[nH]cnc2C(=O)NCC(=O)OCc2ccccc2)cc1 | 1.13
COc1ccc(OC)c(NC(=O)CC2C(=O)NCCN2C(=O)c2ccccc2)c1 (stereo not shown) | 13
COc1ccc(-c2ccc(=O)n(CC(=O)Nc3ccc(C(=O)NC4CC4)cc3)n2)cc1OC | 5.54
Cc1cc(C(=O)Nc2sc3c(c2C#N)CCCCC3)cs1 | -7.49
Cc1cccc(CC(=O)NCCS(=O)(=O)N2CCN(c3cccc(Cl)c3)CC2)c1 | -10.2
O=C(NC1CCCCC1)C(c1ccncc1)N(C(=O)c1ccco1)c1ccc(F)cc1 (stereo not shown) | 2.63
COc1ccc(C(CC(=O)N2CCN(c3ccccc3)CC2)c2c(OC)cc(OC)c3ccc(=O)oc23)cc1 (stereo not shown) | 12.6
Cn1cccc1C(C(=O)NC1CCCCC1)N(C(=O)Cc1cccs1)C1CC1 (stereo not shown) | 10.7
CCOC(=O)c1csc(NC(=O)c2ccc3c(c2)OCCO3)n1 | 10.2
CC(=O)c1cccc(Nc2cc(C)nc3c(C)cc(C)cc23)c1.Cl | -8.43
Cc1cccc(Cn2c(Cc3ccccc3)nc3ccccc32)c1 | -0.0286

Structure (SMILES) | hERG current change (%, negative = inhibition) at 1uM [%]
COc1ccc(CN2CCn3ncc(C(=O)Nc4cccc(C)c4)c3C2=O)cc1 | 10.4
CCOc1ccc(C(=O)CCC(=O)NC(CC(C)C)C(=O)OC)cc1 (stereo not shown) | 8.11
CCc1ccccc1-n1ncc(C(=O)Nc2ccccc2OC)c1C | 11.4
O=C(NCc1ccccc1)C(=O)Nc1cccc(C(=O)O)c1 | 9.27
COc1nc(NC(C)(C)C)nc(Oc2ccc(=O)n(C)n2)n1 | 18.8
Cc1cccc(N(CC(=O)NC2CCCCC2)C(=O)CCCC(=O)Nc2ccccn2)c1 | 4.32
O=C(CSc1nc2ccccc2s1)NNC(=S)Nc1ccc(Cl)cc1 | 10.4
CN=C1S/C(=C\c2cccn2-c2cccc(Br)c2)C(=O)N1C | 2.64
O=C(CSc1nc2ccsc2c(=O)n1CC1CCC(C(=O)O)CC1)c1ccc(F)cc1 (stereo not shown) | 10.2
Cc1ccc(-c2cc(C(=O)N3CCCC3)no2)cc1 | 8.87
CC(=O)C1=C(C)Nc2ncnn2C1c1ccc(C)cc1 (stereo not shown) | 8.11
O=C(CSc1nccn1Cc1ccco1)Nc1cccc(F)c1 | -5.06
C[C@@H](NC(=O)C1(c2ccccc2)CCN(C(=O)OC(C)(C)C)CC1)C(=O)N[C@@H](Cc1ccccc1)C(=O)O | -4.71
CCN(CC)S(=O)(=O)c1ccc2c(c1)oc(=O)n2CC(=O)N(C)C1CCCCC1 | -7.27
CC1CCCC(C)N1C(=O)C1CCCCC1 (stereo not shown) | 12.3
COc1cc(C(=O)Nc2nnc(C)s2)cc(OC)c1OC | 4.94
c1ccc(N2CCN(Cc3cnc(N4CCOCC4)s3)CC2)cc1 | 7.2
CNC(=O)Cn1ncc2c3ccccc3n(C)c2c1=O | 13.1
COc1ccc(/C=C2\C(=O)NC(=O)N(CCC3=CCCCC3)C2=O)c(OC)c1 | 7.4
O=C(O)CSCc1nc2scc(-c3ccccc3)c2c(=O)[nH]1 | 11.5
Cc1ccc(C)c(S(=O)(=O)NCc2ccc(C(=O)N3CCN(c4ccccc4)CC3)cc2)c1 | 11.6
O=C1NC(=O)N(c2ccccc2)C(=O)/C1=C/c1coc2ccc(O)cc2c1=O | 8.07
